In patent US4550113A (priority 1984, dated 1985):
Like-named read-outs stand apart in the source and are kept apart here.

Key:
[1] = lethal dose of d-tubocurarine in mice, with and without pre-administration of the composition; assay type: in vivo; details: mouse, in vivo, control group
Description: (§1) It lowers toxicity of the latter. Thus, in experiments on mice there are determined medium lethal doses of d-tubocurarine in control and test groups which have been previously administered with the medicated composition of the present invention.

[2] = test system: rat's phrenico-diaphragmatic preparation; experiment: neuro-muscular transmission, rat's phrenico-diaphragmatic preparation; details: for activation at 0.1 µM: Rattus norvegicus, read-out: increase in the amplitude of the diaphragm contractions
Description: (§2) Thus, there has been studied the effect of the medicated composition of the present invention on neuro-muscular transmission in experiments on a rat's phrenico-diaphragmatic preparation, musculus rectus abdominis of the frog, and rabbit's sciatic nerve.
Experiments are carried out on phrenico-diaphragmal preparations obtained from male rats weighing 200 g. From the diaphragm two muscular strips are cut of 5-8 mm width with appropriate nerves of 20 mm length. The preparation is placed into a bath with an aerated Tyrode solution with a double content of glucose at a temperature of 20° C., and the pH of the solution is brought to 7.3. The nerve is placed on two silver electrodes through which the muscle preparation is stimulated.
The stimulation parameters are square pulses with a duration of 1 msec, groups of 10 pulses with an interval of 2 seconds therebetween and 1 minute intervals between the groups at a voltage of 12-15 V.

[3] = test system: patients; experiment: clinical tolerance and side effects in patients; assay type: in vivo, human
Text: It very rarely causes signs of M-cholinergic structures: intensified peristaltic of intestine, vomition, salivation (6 patients--1.8%). […] In 4 patients (1.2% there was noted bradicardia, in 2--increase of arterial pressure (passing)--0.6%, in 4 patients (1.2%)--allergic dermal eruption rapidly disappearing after completion of the treatment course. Low frequency and weak manifestation of side effects, good tolerance of the preparation enable a broad variation of its single and daily doses and, when required, to considerably increase the same.

[4] = test system: mice; details: subcutaneously injected in mice; cited from earlier work
[5] = test system: musculus rectus of a frog's abdomen; experiment: acetylcholine contraction of musculus rectus abdominis of the frog; details: for enhancement of the effect of acetylcholine compared with the composition: same conditions
Description: as §2
The cut musculus rectus of a frog's abdomen is placed into a vessel with Ringer solution (pH=7.4) through which air is passed. The muscle contractions are recorded by a strain gauge. […] The effect occurs within 10-15 minutes and slowly diminishes upon the removal of the composition from the solution. 25 minutes after the removal the response to acetylcholine is still equal to 150% vs. the control value.

[6] = biological target: T1, serum butyrylcholinesterase (BuCE) (Homo sapiens, UniProt P06276); experiment: inhibition of purified serum butyrylcholinesterase; assay type: biochemical; details: for Ki: read-out: inhibition constant Ki relative to BuCE
T1 construct: serum butyrylcholinesterase (BuCE); from tissue

[7] = hypodermally injected; cited from earlier work
[8] = test system: neuro-muscular synapses (n.peroneusm.extensor digitorumlongus); experiment: miniature end plate potentials on neuro-muscular synapses; parameters: species or system mice
Description: The effect on miniature end plate potentials (EPP) has been studied on neuro-muscular synapses (n.peroneusm.extensor digitorumlongus).
The following parameters of the end plate potentials are measured: frequency (f), amplitude (A) and duration (t).
In the control preparations the parameters of miniature end plate potentials are as follows: f=3.0 l/sec, A=0.6 mV, t=0.3 msec.

[9] = test system: rabbits; experiment: tubocurarine head drop in rabbits (anticuraric effect); assay type: in vivo; details: intravenously 1.3, 2.6, 5.2 mg/kg after tubocurarine […] i.v.
Description: Tubocurarine in a dose of 0.25 mg/kg administered intravenously results in head drop in rabbits due to blocking of neuro-muscular transmission. […] The anticuraric effect lasts 30 to 40 minutes.

[10] = test system: rats; experiment: training of rats in a T-shaped labyrinth; assay type: in vivo
[11] = test system: rat's sciatic nerve; experiment: conductivity of excitation in rat's sciatic nerve blocked with KCl; details: 1.10^-5 to 1.10^-7 M; KCl 5.10^-5 M
Text: Pulses are passed through a stimulant electrode and the second recording electrode registers the nerve action potentials in response to excitations.
The composition is applied in a concentration of from 1.10^-5 to 1.10^-7 M onto a limited length of the nerve between the electrodes. KCl in a concentration of 5.10^-5 M causes blocking of the conductivity.

[12] = assay type: physicochemical
Description: 1-Amino-2-cyanocyclopentene-1, cyclohexanone, polyphosphoric acid and dry benzene are stirred upon boiling for two hours. After cooling the reaction mass is diluted with water and extracted with ether. The ethereal extract is discarded. The aqueous layer is neutralized to the pH of 7. The precipitate is filtered-off and several times washed with water on the filter. After separation of the precipitate the aqueous layer is combined with the washings and alkalinized with ammonia to a pH of 9-10. The resulting precipitate of 9-amino-2,3,5,6,7,8-hexahydro-1H-cyclopenta(b)quinoline is filtered-off and washed, then dissolved in 20 ml of ethanol and the ethanolic solution is treated by passing therein gaseous hydrogen chloride at a temperature within the range of from 5° to 25° C. to a pH of 3. The thus-obtained salt is precipitated by ethyl ether, the precipitate is reprecipitated from ethanol by ether.

[13] = test system: potassium channels of the membrane; experiment: blocking of potassium currents in an electroexcitable membrane; assay type: cell-based; details: for inhibition of K^+ current upon prolonging the test voltage pulse: pulse prolonged from 10 msec to 1 sec
Text: This effect is characteristic of a known inhibitor of potassium channels of the membrane--4-aminopyridine.

[14] = test system: uterus, vas deferens and the intestine of rats; experiment: contractile activity of smooth-muscle strips (uterus, vas deferens, intestine)
Description: Animals are slaughtered by decapitation, the peritoneal cavity is opened, the smooth-muscle organ is cut out and transferred into a vessel containing a physiological solution. A strip of 15×2 mm is cut from the organ, silk threads are secured to the strip ends and the muscle preparation is placed into a testing unit chamber. The contractile activity of the muscle is recorded under isometric conditions by means of a tensometer. The muscle is in a continuous flow of an aerated physiological solution. Spontaneous contractions are recorded and contractive responses to agonists (acetylcholine, oxytocin, adrenalin, serotonine, histamine, KCl).

[15] = test system: mice, rats, rabbits and dogs
[16] = acute toxicity in mice; details: mouse, in vivo
[17] = carcinogenic, mutagenous, teratogenous, embryotoxic effects
[18] = test system: mice; experiment: lethal dose of d-tubocurarine in mice, with and without pre-administration of the composition; assay type: in vivo; details: test group
Description: as §1

[19] = allergogenic activity
[20] = test system: musculus gastrocnemius; experiment: rabbit's sciatic nerve (in situ), contractions of musculus gastrocnemius; assay type: in vivo
Text: as §2

[21] = acute toxicity in rats; details: rat, in vivo, sc, hypodermally
[22] = test system: patients; experiment: clinical efficiency in patients

COc1cc2c3cc1Oc1cc(ccc1O)C[C@@H]1c4c(cc(OC)c(O)c4Oc4ccc(cc4)C[C@@H]3N(C)CC2)CC[N+]1(C)C [d-tubocurarine, reference compound]
LD50 [1]: 0.29 mg/kg

COc1ccc2c3c1O[C@H]1C[C@@H](O)C=C[C@@]31CCN(C)C2 [galantamine, reference compound]
activation at 0.1 µM [2]: 28%
time after beginning of washing at which effect disappears ([2]; similar concentration (1.10^-7 M)): 20 min
M-cholinergic disturbances compared with proserin ([3]; human, in vivo): to a lesser extent
LD50 [4]: 14 mg/kg
enhancement of the effect of acetylcholine compared with the composition [5]: less pronounced and shorter enhancement

CN(C)C(=O)Oc1cccc([N+](C)(C)C)c1 [proserin, reference compound]
Ki [6]: 150 nM
patients with signs of M-cholinergic structures: intensified peristaltic of intestine, vomition, salivation ([3]; human, in vivo): 50%
LD50 [7]: 0.4 mg/kg
enhancement of the effect of acetylcholine compared with the composition [5]: less pronounced and shorter enhancement

Cl.Nc1c2c(nc3c1CCC3)CCCC2.O [9-amino-2,3,5,6,7,8-hexahydro-1H-cyclopenta(b)quinoline monohydrate hydrochloride]
time after addition within which the effect on miniature EPP is detected [8]: ≤ 30 min
miniature end plate potentials amplitude (A) ([8]; concentration 10^-6 M): 1.2 mV
miniature end plate potentials frequency (f) ([8]; concentration 10^-6 M): 3.0 L/s
effect on tubocurarine head drop [9]: recovery of the muscular tension
training in a T-shaped labyrinth [10]: facilitates training
effect on KCl blocking of nerve conductivity [11]: removes this blocking and restores the conductivity of the nerve
solubility in 95% ethanol [12]: slowly soluble
solubility in acetone, ether, chloroform [12]: substantially insoluble
solubility in diluted solutions of acids [12]: readily soluble
solubility in water [12]: readily soluble
effect on the membrane potential without fixation of the potential [13]: pronounced extension of the potential of the membrane effect
blocking of potassium currents ([13]; concentration 1.10^-6 to 1.10^-5 M): 50-70%
inhibition of K^+ current upon prolonging the test voltage pulse [13]: fully retained
stimulating effect detected after removal from the solution [14]: ≥ 40 min
effect on contractive responses to agonists (acetylcholine, oxytocin, adrenalin, serotonine, histamine, KCl) ([14]; rat smooth-muscle strips): increases the amplitude of contractions in response to all agonists, except K^+
activation at 0.1 µM [2]: 74 to 80%
contraction still increased after washing-off ([2]; one hour after the washing-off): 25%
signs observed ([15]; higher doses): excitation of animals, tremor, signs of stimulation of M-cholinergic systems: hypersalivation, hyperperspiration, and diarrhea
combination with apomorphine, phenamine and L-DOFA ([15]; in vivo): enhanced by the composition of the present invention only in high doses
combination with arecoline ([15]; in vivo): potentiates the effects of arecoline
effect on animal behavior ([15]; in vivo): does not change the animal behavior
effect on the central nervous system ([15]; in vivo): stimulating effect on the central nervous system
signs observed ([15]; toxic doses): convulsions are developed
LD50 ([16]; ip, single intraperitoneal administration): 44 mg/kg
LD50 ([16]; po, per os): 68 mg/kg
LD50 ([16]; sc, hypodermally): 52 mg/kg
carcinogenic, mutagenous, teratogenous or embryotoxic effects [17]: neither carcinogenic, mutagenous, teratogenous or embryotoxic effects
manner of inhibition of BuCE [6]: non-competitive manner
Ki [6]: 5.6 nM
LD50 of d-tubocurarine after previous administration of the composition [18]: 0.69 mg/kg
allergogenic effect [19]: no allergogenic effect
increase of the amplitude of contractions of the musculus gastrocnemius ([20]; in response to the addition of acetylcholine): 50-78%
duration of the effect ([20]; rabbit, in vivo): still observed one hour after addition
patients with bradicardia ([3]; human, in vivo): 1.2%
patients with allergic dermal eruption ([3]; rapidly disappearing after completion of the treatment course): 1.2%
LD50 [21]: 60 mg/kg
effect on weak delivering activity ([22]; administration of 10 mg): 96%
time after administration to increasing contractive activity of uterus ([22]; administration of 10 mg): 10 min
improvement ([22]; disseminated sclerosis): 60%
improvement ([22]; myastenia): 92%
improvement ([22]; patients with neuritides and polyneuritides of infectional and traumatic etiology, subcutaneous): 88%
improvement ([22]; radiculoneuritides of the discogenous origin): 62%
time within which the effect occurs [5]: 10 to 15 min
response to acetylcholine vs. the control value after removal ([5]; 25 minutes after the removal): 150%
acetylcholine contraction superior to the control ([5]; acetylcholine 1.10^-6 M, preparation 1.10^-7 to 1.10^-6 M): 180%

Nc1ccncc1 [4-aminopyridine, reference compound]
inhibition of K^+ current upon prolonging the test voltage pulse [13]: disappears
